{"source": "PubChem BioAssay AID1345083", "about": "(National Center for Advancing Translational Sciences (NCATS), 2018)", "note": "Among all 94,000 compounds or so, about 6,200 (6.6%) were called active. The shares of active, inactive and inconclusive entries below differ from those in the screen. Calls follow the shape of the dose curve; as a rule, active = well fitted inhibition curve with a large enough effect; inconclusive = small, poorly fitted or top-dose-only effect; inactive = flat fitted curve, though single readings scatter. A potency beside an inconclusive call is a rough fit, not a confirmed value. Potency is read from the fitted curve at half-maximal effect; tags tell the direction and shape of the fitted curve."}
{"experiment": "Cytotoxic Profiling in HEK 293 Cell Line of Diverse Libraries Using Quantitative High-Throughput Screening; also: nearly all actives have a fitted effect of over 60% in size", "conditions": "HEK 293 viability, ATP luminescence (CellTiter-Glo), 48-72 h; series mostly up to 115 µM", "procedure,_shortened": "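Viability of HEK 293 cells, plated at 250 cells/well, was judged by cellular ATP after compound treatment for 48 or 72 hr. Luminescence was imaged 10 min after CellTiter-Glo addition at room temperature.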"}
{"smiles": "CN(CC#N)C(=O)c1cc(-c2ccccc2F)nc2c1cnn2C", "Potency": "inactive"}
{"smiles": "CC(Oc1ccccc1)C(=O)N1CCN(C(=O)c2nnn3c2COC(c2ccccc2)C3)CC1", "note": "(centres undefined)", "Potency": "inconclusive: 56.2 µM [inhibitor, partial curve, poor fit]"}
{"smiles": "CCc1nc2c(=O)n(CC(=O)N3CCN(c4cc(C)ccc4C)CC3)nc(C)c2s1", "Potency": "inconclusive: 56.2 µM [inhibitor, partial curve, poor fit]"}
{"smiles": "COc1ccc(-c2noc(-c3nc(-c4cccnc4)no3)n2)cc1", "Potency": "inactive"}
{"smiles": "Cc1ccc(OCc2nc(C3CN(C(=O)Cc4ccccc4F)C3)no2)cc1", "Potency": "inconclusive: 56.2 µM [inhibitor, partial curve, poor fit]"}
{"smiles": "O=C(c1ccoc1)N1CCC2(CC1)N=C(c1cccc(Br)c1)NO2", "Potency": "inactive"}
{"smiles": "O=C(CCCc1c[nH]c2ccccc12)N1CCN2CCS(=O)(=O)N(C3CC3)C(=O)C2C1", "note": "(centres undefined)", "Potency": "inconclusive: 100 µM [inhibitor, single point]"}
{"smiles": "CCOC(=O)C1CCCN(C(=O)c2ccc3oc(-c4ccncc4)nc3c2)C1", "note": "(centres undefined)", "Potency": "inconclusive: 44.7 µM [inhibitor, partial curve, poor fit]"}
{"smiles": "CC(C)N1C[C@H](O)C[C@H]1c1nnc2n1CCN(C(=O)CCCc1c[nH]c3ccccc13)C2", "Potency": "inactive"}
{"smiles": "COC(=O)CN1C(=O)[C@@H]2C[C@@H](O)CN2C2(CN(C3CCOCC3)C2)C1=O", "Potency": "inactive"}
{"smiles": "O=C(Nc1cccc(F)c1)Nc1ccc2n(c1=O)C[C@H]1C[C@@H]2CN(C(=O)c2ccc(F)cc2)C1", "Potency": "active: 39.8 µM"}
{"smiles": "Cc1ccc(CN2CCOC[C@H]2c2ncc(C(C)(C)C)[nH]2)cc1", "Potency": "active: 112 µM"}
{"smiles": "COc1cccc(-c2noc(CC3CCN(C(=O)c4ccc(F)c(F)c4)CC3)n2)c1", "Potency": "inconclusive: 7.94 µM [inhibitor, full curve, poor fit]"}
{"smiles": "Cc1ccc(C(=O)N2CC(Oc3ccc(F)cc3F)C2)cc1", "Potency": "inactive"}
{"smiles": "CCOC(=O)c1cccc(NCC2=CC(C)(C)Oc3ccc(OC)cc32)c1", "Potency": "inconclusive: 79.4 µM [inhibitor, partial curve, poor fit]"}
{"smiles": "CS(=O)(=O)N1CC2(CCCN2Cc2cccc(C(N)=O)c2)Cc2ccccc21", "note": "(centres undefined)", "Potency": "inactive"}
{"smiles": "COc1ccc2nc([C@H]3CCN(Cc4ccccc4)C3)[nH]c2c1", "Potency": "inconclusive: 126 µM [inhibitor, single point]"}
{"smiles": "NC(=O)C1CCN(CC[C@H]2CN(C(=O)Nc3ccc(OC(F)(F)F)cc3)CC[C@H]2CC(=O)O)CC1", "Potency": "inactive"}
{"smiles": "COc1ccc(N2CCN(C(=O)c3noc(-c4ccc(C)cc4)n3)CC2)cc1", "Potency": "inconclusive: 89.1 µM [inhibitor, single point]"}
{"smiles": "O=C(NCc1ccc(Cl)nc1)c1cccn2nccc12", "Potency": "inconclusive: 56.2 µM [inhibitor, partial curve, poor fit]"}
{"smiles": "COCCN1C(=O)CC[C@@]2(C(=O)N3CCOCC3)CCCC[C@H]12", "Potency": "inactive"}
{"smiles": "Cc1ccc(NC(=O)N2CCC(N3C(=O)C4(CCCCC4)C3c3ccncc3)CC2)cc1C", "note": "(centres undefined)", "Potency": "inconclusive: 79.4 µM [inhibitor, partial curve]"}
{"smiles": "COc1ccc(C)cc1NC(=O)c1ccc2c(c1)N(C)C1CCCN1C2=O", "note": "(centres undefined)", "Potency": "inconclusive: 56.2 µM [inhibitor, partial curve, poor fit]"}
{"smiles": "CCN1c2cc(C(=O)Nc3ccc(C)cc3Cl)ccc2C(=O)N2CCCCCC21", "note": "(centres undefined)", "Potency": "active: 50.1 µM"}
{"smiles": "O=C1N(CCc2ccccc2)CCOC12CCN(Cc1ccc(F)c(Cl)c1)CC2", "Potency": "active: 79.4 µM"}
{"smiles": "COc1cc(OC)cc(C(=O)N2CCCC(n3cc(-c4nc(C5CC5)no4)nn3)C2)c1", "note": "(centres undefined)", "Potency": "inactive"}
{"smiles": "O=C(c1ccc(Cl)cc1)N1CCC2(CC1)N(c1ccccc1)C(=O)CS2(=O)=O", "Potency": "inactive"}
{"smiles": "CCc1cccc2c(C(CC(=O)NCCOC)c3ccc(OC)c(OC)c3)c[nH]c12", "note": "(centres undefined)", "Potency": "inactive"}
{"smiles": "CC(C)c1nc(C(=O)N2CCC(CCC(=O)Nc3ccc4c(c3)OCCO4)CC2)cs1", "Potency": "inconclusive: 56.2 µM [inhibitor, partial curve, poor fit]"}
{"smiles": "CCc1ccc(S(=O)(=O)c2nnn3c2nc(NCc2ccc(F)cc2)c2ccccc23)cc1", "Potency": "inactive"}
{"smiles": "CCN(C(=O)CN1C(=O)NC(c2ccc(C)cc2)C2=C1COC2=O)c1cccc(C)c1", "note": "(centres undefined)", "Potency": "inconclusive: 79.4 µM [inhibitor, single point]"}
{"smiles": "CCOc1ccc(CC(=O)N2CCC(Cc3nc(-c4ccccc4)no3)CC2)cc1", "Potency": "active: 22.4 µM"}
{"smiles": "c1ccc(-n2cc(CN3CCC(Oc4ccncc4)CC3)nn2)cc1", "Potency": "inconclusive: 56.2 µM [inhibitor, partial curve, poor fit]"}
{"smiles": "O=C(Nc1ccccc1)C1CC(=O)N(c2n[nH]c3cc(Br)ccc23)C1", "note": "(centres undefined)", "Potency": "inactive"}
{"smiles": "Cn1cc(Cl)cc1C(=O)N[C@H](C1CCNCC1)C1CC(O)C1", "note": "(some centres undefined)", "Potency": "inactive"}
{"smiles": "COC1CN(c2ccc(C)cc2)C12CCN(C(=O)C1CCCC1)CC2", "note": "(centres undefined)", "Potency": "inconclusive: 89.1 µM [inhibitor, partial curve, poor fit]"}
{"smiles": "COc1cccc(-c2cn3cc(C(=O)NC4CC4)nc3s2)c1", "Potency": "inconclusive: 50.1 µM [inhibitor, partial curve, poor fit]"}
{"smiles": "Cc1cc(=O)n(CC(=O)Nc2ccccc2F)c(N2CCc3ccccc3C2)n1", "Potency": "inactive"}
{"smiles": "O=C(NCCc1ccc(F)cc1)C1CCCN(c2nc3ncccc3o2)C1", "note": "(centres undefined)", "Potency": "inactive"}
{"smiles": "CC(C)CCC(=O)NC1CCN(c2cnn(CC3CC3)c(=O)c2)CC1", "Potency": "inconclusive: 56.2 µM [inhibitor, partial curve, poor fit]"}
{"smiles": "O=[S+]1([O-])NCC2(CCN(Cc3ccsc3)CC2)Nc2ccccc21", "Potency": "inactive"}
{"smiles": "Cn1ncc2c(C(=O)NC3CC3)cc(-c3ccc(C(F)(F)F)cc3)nc21", "Potency": "inconclusive: 39.8 µM [inhibitor, partial curve]"}
{"smiles": "CO[C@H]1C(=O)N(C(C)C)[C@H]1C1CCN(C(=O)CCn2cccn2)CC1", "Potency": "inactive"}
{"smiles": "Cc1cccc(-c2cnc3n[nH]c(-c4ccccc4)c3n2)c1", "Potency": "active: 70.8 µM"}
{"smiles": "CC(C)(C)c1ccc(-c2cc(C[C@H]3CNCC[C@H]3CC(=O)N3CCN(c4ccc(F)cc4)CC3)no2)cc1", "Potency": "inconclusive: 89.1 µM [inhibitor, partial curve, poor fit]"}
{"smiles": "COc1ccc(-n2nc(C3CCCN(C(=O)c4ccccc4Cl)C3)[nH]c2=O)cc1", "note": "(centres undefined)", "Potency": "inconclusive: 56.2 µM [inhibitor, partial curve, poor fit]"}
{"smiles": "O=C(NCc1ccccc1)N1CCCC(c2noc(COc3ccccc3F)n2)C1", "note": "(centres undefined)", "Potency": "inconclusive: 89.1 µM [inhibitor, single point]"}
{"smiles": "COc1ccc(N2CCN(C(=O)CN3C(=O)NC4(CCCCC4)C3=O)CC2)cc1", "Potency": "inactive"}
{"smiles": "CCOc1cc(CN(C)C(=O)c2cc(C)sc2NC(=O)C(C)(C)C)ccc1OC", "Potency": "inconclusive: 31.6 µM [inhibitor, partial curve, poor fit]"}
{"smiles": "Cc1ccc(-c2cc(C(=O)NCc3ccc(C(F)(F)F)cc3)c3cnn(C)c3n2)c(C)c1", "Potency": "active: 35.5 µM"}
{"smiles": "O=C(c1ccccc1)N1CCC2(CC1)C(=NC1CCCCC1)NC(=O)N2c1cccnc1", "Potency": "inactive"}
{"smiles": "O=C(c1ccncc1)N1CCc2nc3cc(-c4ccccc4Cl)[nH]n3c(=O)c2C1", "Potency": "inactive"}
{"smiles": "COc1ccc(C(=O)NC[C@H]2COCc3nc4cc(C(F)(F)F)ccc4n32)cc1", "Potency": "inconclusive: 100 µM [inhibitor, partial curve]"}
{"smiles": "COC(=O)[C@@H](Cc1cccnc1)NC(=O)[C@H]1CN(C(C)=O)CCN1C(C)=O", "Potency": "inactive"}
{"smiles": "CCCC1=Nc2cc(C(=O)NCCc3ccc(C)cc3)ccc2Sc2ccc(C)cc21", "Potency": "inconclusive: 7.94 µM [inhibitor, full curve]"}
{"smiles": "O=C(NCCNC(=O)c1cccc(Cl)c1)c1ccc(-c2cncnc2)cc1", "Potency": "inconclusive: 50.1 µM [inhibitor, partial curve, poor fit]"}
{"smiles": "Cc1ccncc1C(=O)N1CCC(N2CC3(CCCCC3)C2c2ccncc2)CC1", "note": "(centres undefined)", "Potency": "inactive"}
{"smiles": "Cc1cc(C)n(CC(=O)N2CCCCC2C(=O)Nc2ccc(-n3nc(C)cc3C)cc2)n1", "note": "(centres undefined)", "Potency": "inactive"}
{"smiles": "COc1ccc(OCc2nc(C(=O)N3CCCC(C)(CO)C3)co2)cc1", "note": "(centres undefined)", "Potency": "inactive"}
{"smiles": "O=C(CC1CCCN(c2cnn(CC3CC3)c(=O)c2)C1)NC1CCCC1", "note": "(centres undefined)", "Potency": "inactive"}
{"smiles": "COc1ccc(-c2cc3c(cn2)CN(Cc2ccccc2)CCN3)cc1OC", "Potency": "inconclusive: 56.2 µM [inhibitor, full curve, poor fit]"}
{"smiles": "Cc1cc(C)cc(NC(=O)c2cc3n(n2)CC(c2ccc4c(c2)OCO4)OC3)c1", "note": "(centres undefined)", "Potency": "active: 89.1 µM"}
{"smiles": "O=C(NCc1cccs1)c1ccc2nnc(-c3cc(C(F)(F)F)cc(C(F)(F)F)c3)n2c1", "Potency": "inconclusive: 50.1 µM [inhibitor, partial curve, poor fit]"}
{"smiles": "COc1ccccc1OCCNC(=O)c1cn2ccnc(-c3ccccc3)c2n1", "Potency": "inconclusive: 44.7 µM [inhibitor, partial curve, poor fit]"}
{"smiles": "CCCCNC(=O)c1cccc2c1CCN2C(=O)c1ccc(F)cc1", "Potency": "inconclusive: 79.4 µM [inhibitor, single point]"}
{"smiles": "CO[C@H]1C(=O)N(C(C)C)[C@H]1C1CCN(S(=O)(=O)c2cccc3cccnc23)CC1", "Potency": "inactive"}
{"smiles": "Cn1cc(CN2CC[C@H](c3nnc(-c4cccnc4)o3)C2)c2ccccc21", "Potency": "inactive"}
{"smiles": "COc1ccc(OCc2nc(C3CN(C(=O)Cc4ccccc4F)C3)no2)cc1", "Potency": "inconclusive: 89.1 µM [inhibitor, partial curve, poor fit]"}
{"smiles": "Cn1cc(C2CCN(C(=O)c3c(Cl)cc(Cl)cc3Cl)CC2)c2ccccc21", "Potency": "inconclusive: 20 µM [inhibitor, full curve, poor fit]"}
